Among all 3,200 compounds or so, about 75 (2%) showed an effect of 50% or more. This is one part of the list.
tested on: T1, S. aureus MSSA476; design: species or system S. aureus MSSA476 (TSB) or V. cholerae SAD30 (LB); 384-well bacterial growth screen at 25 uM, OD600 relative to DMSO control; conditions: relative growth, OD600, TSB; 25 µM; inhibitor
T1 construct: MSSA476

Row | Compound | % of control remaining [%]
1 | N#CC(=Cc1cccc(Oc2ccccc2)c1)C(=O)NC(N)=O [8-D07, {2-cyano-2-[(3-phenoxyphenyl)methylidene]acetyl}urea] | 113.195
2 | CCc1cccc(CC)c1NC(=O)C(C#N)=Cc1ccc(C)o1 [8-P11, 2-cyano-N-(2,6-diethylphenyl)-3-(5-methylfuran-2-yl)prop-2-enamide] | 145.062
3 | C=CC(=O)NCc1c(C)nc2ccccn12 [1-C08, N-({2-methylimidazo[1,2-a]pyridin-3-yl}methyl)prop-2-enamide] | 105.846
4 | CC(=Cc1ccccc1)C=C(C#N)C(=O)NC1CC1 [9-F12, 2-cyano-N-cyclopropyl-4-methyl-5-phenylpenta-2,4-dienamide] | 106.367
5 | CC(Cl)C(=O)N(C)Cc1cc(Cl)cn1C (centres unmarked) [6-P21, 2-chloro-N-[(4-chloro-1-methyl-1H-pyrrol-2-yl)methyl]-N-methylpropanamide] | 90.8293
6 | CC(C)c1ccccc1NC(=O)CCl [4-F06, 2-chloro-N-[2-(propan-2-yl)phenyl]acetamide] | 113.197
7 | C=CC(=O)N1CCC(C(=O)Nc2cccc(N3CCCC3=O)c2)CC1 [2-H04, N-[3-(2-oxopyrrolidin-1-yl)phenyl]-1-(prop-2-enoyl)piperidine-4-carboxamide] | 104.091
8 | Cc1ccc(Oc2ccc(NC(=O)CCl)cc2)cc1 [4-K03, 2-chloro-N-[4-(4-methylphenoxy)phenyl]acetamide] | 86.8985
9 | C=CC(=O)NC(Cc1nc(C)no1)c1ccccc1 (centres unmarked) [1-B22, N-[2-(3-methyl-1,2,4-oxadiazol-5-yl)-1-phenylethyl]prop-2-enamide] | 122.022
10 | Cc1cc(C(=O)CCl)c(F)cc1F [10-O03, 2-chloro-1-(2,4-difluoro-5-methylphenyl)ethan-1-one] | 143.438
11 | N#CC(=Cc1ccncc1)C(=O)Nc1cccc(Cl)c1 [8-B19, N-(3-chlorophenyl)-2-cyano-3-(pyridin-4-yl)prop-2-enamide] | 109.212
12 | C=CC(=O)N1CCC(C(=O)NCc2ccccc2)CC1 [1-I05, N-benzyl-1-(prop-2-enoyl)piperidine-4-carboxamide] | 97.0549
13 | COc1ccc(N2C(=O)C=CC2=O)c([N+](=O)[O-])c1 [10-L11, 1-(4-methoxy-2-nitrophenyl)-2,5-dihydro-1H-pyrrole-2,5-dione] | 100
14 | C=CC(=O)NCc1ncoc1C(F)(F)F [3-E18, N-{[5-(trifluoromethyl)-1,3-oxazol-4-yl]methyl}prop-2-enamide] | 106.922
15 | O=C(CCl)NC1CCC(c2nc(-c3ccccc3)n[nH]2)CC1 (centres unmarked) [6-G19, 2-chloro-N-[4-(3-phenyl-1H-1,2,4-triazol-5-yl)cyclohexyl]acetamide] | 89.4634
16 | Cc1ccc(NC(=O)C(C#N)=Cc2ccccc2OC(F)F)c(C)c1 [9-K17, 2-cyano-3-[2-(difluoromethoxy)phenyl]-N-(2,4-dimethylphenyl)prop-2-enamide] | 71.9101
17 | Cc1ccc(NC(=O)C2CSCN2C(=O)CCl)c(C)c1 (centres unmarked) [5-M07, 3-(2-chloroacetyl)-N-(2,4-dimethylphenyl)-1,3-thiazolidine-4-carboxamide] | 111.475
18 | C=CC(=O)N1CCC(C(=O)NCC(O)c2c(F)cccc2F)CC1 (centres unmarked) [2-P14, N-[2-(2,6-difluorophenyl)-2-hydroxyethyl]-1-(prop-2-enoyl)piperidine-4-carboxamide] | 92.9504
19 | CC(Cl)C(=O)N1CCC(Cc2ccccc2)CC1 (centres unmarked) [5-K21, 1-(4-benzylpiperidin-1-yl)-2-chloropropan-1-one] | 82.3315
20 | O=C(CCl)NCc1ccc(C(=O)N2CCOCC2)cc1 [5-L14, 2-chloro-N-{[4-(morpholine-4-carbonyl)phenyl]methyl}acetamide] | 83.4244
21 | CC(Cl)C(=O)N(c1cccc(C#N)c1)C1CCC1 (centres unmarked) [6-N22, 2-chloro-N-(3-cyanophenyl)-N-cyclobutylpropanamide] | 85.3659
22 | CC(Cl)C(=O)N(C)c1ccccc1 (centres unmarked) [5-D06, 2-chloro-N-methyl-N-phenylpropanamide] | 107.104
23 | CC(C)NC(=O)C(C#N)=Cc1ccc(C(C)C)cc1 [9-I11, 2-cyano-N-(propan-2-yl)-3-[4-(propan-2-yl)phenyl]prop-2-enamide] | 89.588
24 | CC(C)c1noc2ncc(C(=O)N3CCSSCC3)cc12 [10-F21, 5-[3-(propan-2-yl)-[1,2]oxazolo[5,4-b]pyridine-5-carbonyl]-1,2,5-dithiazepane] | 115.625

Row | Compound | % of control remaining [%]
25 | C=CC(=O)N(C)CC(=O)N1CCN(c2ccccc2[N+](=O)[O-])CC1 [2-L04, N-methyl-N-{2-[4-(2-nitrophenyl)piperazin-1-yl]-2-oxoethyl}prop-2-enamide] | 93.2985
26 | O=C(CN(CC1CCCO1)C(=O)CCl)N1CCCC1 (centres unmarked) [7-D18, 2-chloro-N-[2-oxo-2-(pyrrolidin-1-yl)ethyl]-N-[(oxolan-2-yl)methyl]acetamide] | 96.3893
27 | Cn1ccnc1C(NC(=O)CCl)c1ccccc1 (centres unmarked) [4-H20, 2-chloro-N-[(1-methyl-1H-imidazol-2-yl)(phenyl)methyl]acetamide] | 163.888
28 | CC(Cl)C(=O)NCC1CCN(C)c2ccccc21 (centres unmarked) [7-J11, 2-chloro-N-[(1-methyl-1,2,3,4-tetrahydroquinolin-4-yl)methyl]propanamide] | 101.099
29 | COc1cc(C=C(C#N)C(=O)Nc2c(C)cc(C)cc2C)cc(OC)c1 [8-A18, 2-cyano-3-(3,5-dimethoxyphenyl)-N-(2,4,6-trimethylphenyl)prop-2-enamide] | 102.241
30 | Cl.NC(=O)c1ccccc1N1CCC(NC(=O)CCl)CC1 [7-P14, 2-[4-(2-chloroacetamido)piperidin-1-yl]benzamide hydrochloride] | 99.529
31 | N#CC(=Cc1ccc(O)cc1)C(=O)Nc1ccc(Cl)cc1Cl [9-G22, 2-cyano-N-(2,4-dichlorophenyl)-3-(4-hydroxyphenyl)prop-2-enamide] | 78.2022
32 | O=C(CCl)Nc1ccccc1Cc1ccccc1 [4-N22, N-(2-benzylphenyl)-2-chloroacetamide] | 81.1815
33 | C=CC(=O)Nc1cnc2cc(C)nn2c1 [2-M13, N-{2-methylpyrazolo[1,5-a]pyrimidin-6-yl}prop-2-enamide] | 109.312
34 | C=CC(=O)N(C)Cc1nc2c(cnn2C)c(=O)[nH]1 [3-L08, N-methyl-N-({1-methyl-4-oxo-1H,4H,5H-pyrazolo[3,4-d]pyrimidin-6-yl}methyl)prop-2-enamide] | 105.529
35 | CC(Cl)C(=O)N(Cc1ccsc1)C1CC1 (centres unmarked) [7-G11, 2-chloro-N-cyclopropyl-N-[(thiophen-3-yl)methyl]propanamide] | 90.1099
36 | O=[N+]([O-])c1ccccc1S(=O)(=O)N1CCSSCC1 [10-N09, 5-(2-nitrobenzenesulfonyl)-1,2,5-dithiazepane] | 124.688
37 | C=CC(=O)N1CCC(c2nc(C3CCC3)no2)CC1 [2-O04, 1-[4-(3-cyclobutyl-1,2,4-oxadiazol-5-yl)piperidin-1-yl]prop-2-en-1-one] | 99.5648
38 | C=CC(=O)NCc1nc2cc(F)ccc2o1 [3-N20, N-[(5-fluoro-1,3-benzoxazol-2-yl)methyl]prop-2-enamide] | 121.55
39 | C=CC(=O)N1CCCC(CNC(C)=O)C1 (centres unmarked) [3-E15, N-{[1-(prop-2-enoyl)piperidin-3-yl]methyl}acetamide] | 90.9012
40 | C=CC(=O)NCCC(=O)N1CCSC(C)(C)C1 [3-G18, N-[3-(2,2-dimethylthiomorpholin-4-yl)-3-oxopropyl]prop-2-enamide] | 102.046
41 | C=CC(=O)Nc1ccc(-c2nc3cc(C)ccc3o2)cc1 [1-D20, N-[4-(5-methyl-1,3-benzoxazol-2-yl)phenyl]prop-2-enamide] | 123.78
42 | CC(Cl)C(=O)Nc1cc(Cl)c(Cl)cc1Cl (centres unmarked) [4-N13, 2-chloro-N-(2,4,5-trichlorophenyl)propanamide] | 91.8533
43 | O=C(CCl)Nc1ccc(-c2ccccc2)cc1 [4-N10, N-{[1,1'-biphenyl]-4-yl}-2-chloroacetamide] | 105.193
44 | CCOC(=O)c1[nH]c(C)c(C(=O)CCl)c1C [10-A10, ethyl 4-(2-chloroacetyl)-3,5-dimethyl-1H-pyrrole-2-carboxylate] | 136.563
45 | O=C(CCl)Nc1ccc(S(=O)(=O)N2CCCCC2)cc1 [4-H06, 2-chloro-N-[4-(piperidine-1-sulfonyl)phenyl]acetamide] | 103.287
46 | C=CC(=O)N1CCCC2(CCCCO2)C1 (centres unmarked) [3-O09, 1-{1-oxa-8-azaspiro[5.5]undecan-8-yl}prop-2-en-1-one] | 90.5529
47 | N#CC(=Cc1ccc(-c2ccccc2Cl)o1)C(=O)N1CCCCC1 [8-F20, 3-[5-(2-chlorophenyl)furan-2-yl]-2-(piperidine-1-carbonyl)prop-2-enenitrile] | 110.871
